According to PubChem BioAssay AID1345082 (National Center for Advancing Translational Sciences (NCATS), 2018):
“And” between values parts separate entries of the source, which are not always exact repeats. Equal entries are not always repeated. Hit rate of the full screen: of about 94,000 compounds, about 4,000 (4.3%) were called active. The shares of active, inactive and inconclusive entries below differ from those in the screen. Calls come from the whole dose curve; as a rule, active = well fitted inhibition curve with a large enough effect; inconclusive = small, poorly fitted or top-dose-only effect; inactive = no such curve, though single readings can be large or run the other way. A potency beside an inconclusive call is a rough fit, not a confirmed value.

test: Cytotoxic Profiling in NIH 3T3 Cell Line of Diverse Libraries Using Quantitative High-Throughput Screening; conditions: NIH 3T3 viability, CellTiter-Glo ATP luminescence, 48-72 h; series mostly up to 96.7 µM; note: nearly all actives have a fitted effect of over 55% in size
Summary of the method: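 Viability of NIH 3T3 cells after 48 or 72 hr compound treatment at 37 °C was assessed by CellTiter-Glo, with luminescence imaged following a 10 min room-temperature step.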
Potency is the fitted concentration of half-maximal effect; tags give direction and shape of the fitted curve.

For `CO[C@H]1CN(C2CCN(C(=O)CN3CCCC3=O)CC2)[C@H]1c1cccnc1`, which Potency is on record?
Its Potency is “inactive”.

Which Potency does the source give for `Cc1nn(-c2ccccc2)c2c1C(C1CC1)N(CC1CN(C(=O)c3ccc(Cl)nc3)C1)C2=O` (stereo not given) here?
The Potency was inconclusive: 50.1 µM [inhibitor, partial curve, poor fit].

Which Potency does the source give for `CNC(=O)c1ccc2nc(-c3cccnc3)oc2c1` here?
Its Potency is inconclusive: 100 µM [inhibitor, partial curve, poor fit].

For `CCC#CCN1CCc2ccccc2N(CC(O)COCc2ccco2)CCC1=O` (stereo not given), which Potency is on record?
Its Potency is inconclusive: 0.794 µM [inhibitor, full curve, poor fit].

Which Potency does the source give for `CCN1c2cc(C(=O)NCc3cccs3)ccc2C(=O)N2CCCCC21` (stereo not given) here?
The Potency was inconclusive: 70.8 µM [inhibitor, single point].

For `O=C(Cc1ccc(F)cc1)NCCNC(=O)c1ccc(-c2cccc(C(F)(F)F)c2)cc1`, which Potency is on record?
Its Potency is “inactive”.

With `NC(=O)Cn1ccc2cc(OCC3CCN(c4cc(NC5CC5)ncn4)CC3)cnc21` as the compound, how does the Potency read?
Its Potency is inconclusive: 31.6 µM [inhibitor, partial curve, poor fit].

Which Potency does the source give for `CCOC(=O)c1cccc(NC(=O)O[C@@H]2CO[C@H]3[C@@H]2OC[C@@H]3NS(=O)(=O)c2cc(OC)ccc2OC)c1` here?
Its Potency is “inactive”.

With `COCC(C)NC(=O)c1csc2nc(-c3cccc(C(F)(F)F)c3)cn12` (stereo not given) as the compound, how does the Potency read?
Its Potency is inconclusive: 39.8 µM [inhibitor, partial curve, poor fit].

With `O=C(COc1ccccc1)N1CCc2c(n(Cc3cccnc3)n(CCc3ccccc3)c2=O)C1` as the compound, how does the Potency read?
The Potency was active: 35.5 µM.

With `CCn1cc(S(=O)(=O)N2CCC(F)(c3nc(-c4ccncc4)no3)CC2)cn1` as the compound, how does the Potency read?
The Potency was inconclusive: 50.1 µM [inhibitor, partial curve, poor fit].

Which Potency does the source give for `COc1ccc(NC(=O)C2(C)CN(C)Cc3ccc(Nc4cccc(OC)c4)nc32)cc1` (stereo not given) here?
Its Potency is inconclusive: 44.7 µM [inhibitor, full curve].

With `CC1(c2ccccc2)N(Cc2ccccc2F)C(=O)OC12CCN(C(=O)Cc1ccc(O)cc1)CC2` (stereo not given) as the compound, how does the Potency read?
The Potency was active: 22.4 µM.

For `COCCCn1c(=O)c(C(=O)N2CCN(C(=O)c3ccccc3Cl)CC2)nc2cccnc21`, which Potency is on record?
The Potency was “inactive”.

For `COc1ccccc1-c1cccc(C(=O)N2CCN(C(=O)C3CC3)CC2)c1`, which Potency is on record?
Its Potency is inconclusive: 44.7 µM [inhibitor, partial curve, poor fit].

With `O=C(NCCN1CCCCC1)C1(CCO)CCN(c2ncccn2)C1` (stereo not given) as the compound, how does the Potency read?
Its Potency is inconclusive: 79.4 µM [inhibitor, partial curve, poor fit].

Which Potency does the source give for `COc1ccc(OC)c(CN2CC[C@@H]3OCC(=O)N(Cc4c[nH]c5ccccc45)[C@H]3CC2)c1` here?
The Potency was inconclusive: 50.1 µM [inhibitor, single point].

Which Potency does the source give for `CCc1cccc(NC(=O)CN2C(=O)NC(c3ccc(Cl)cc3)C3=C2COC3=O)c1` (stereo not given) here?
The Potency was active: 25.1 µM.

Which Potency does the source give for `CC(=O)Nc1cccc(-c2nc(-c3c(C)noc3C)cc3cc(C)oc23)c1` here?
Its Potency is active: 39.8 µM.

For `Cn1ccc(C(=O)N2CC(CNc3ccccc3)C3(C2)CN(c2ccccc2)C3)n1` (stereo not given), which Potency is on record?
The Potency was inconclusive: 56.2 µM [inhibitor, partial curve, poor fit].

Which Potency does the source give for `COc1ccc(NC(=O)Cn2c(-c3ccc(Cl)cc3)nc(C)cc2=O)cc1OC` here?
Its Potency is “inactive”.

Which Potency does the source give for `O=C(NC(c1ccccc1)c1ccccc1)c1cnc2c(c1)N(C(=O)Cc1ccc(O)cc1)CCC2` here?
The Potency was inconclusive: 63.1 µM [inhibitor, partial curve, poor fit].

Which Potency does the source give for `Clc1ccc(CN2CC[C@H](c3nc4cc(Cl)ccc4o3)C2)cc1` here?
Its Potency is inconclusive: 112 µM [inhibitor, single point].

Which Potency does the source give for `CNC(=O)[C@@H]1CN(C(=O)C2CC=CC2)C[C@H]1CO` here?
Its Potency is “inactive”.

For `Cc1ccc(-c2cccc(CN3CCCC(NC(=O)c4cccc(Cl)c4)C3)c2)cc1Cl` (stereo not given), which Potency is on record?
The Potency was “inactive”.

For `COc1ccc(C(=O)N2CCC3(CC2)NC(=O)N(Cc2ccc(C)cc2)C3=O)cc1`, which Potency is on record?
The Potency was “inactive”.

Which Potency does the source give for `NCc1ccc(-c2cc(C(F)(F)F)ccc2Cl)cc1` here?
Its Potency is active: 25.1 µM.

Which Potency does the source give for `COc1ccccc1CN1CCC(N2C(=O)c3c(c(C)nn3-c3ccccc3)C2C2CC2)CC1` (stereo not given) here?
Its Potency is “inactive”.

For `O=C(c1cccc(Cl)c1)N1CCC2(C1)C(=O)N(CCc1ccccc1)c1ccccc12` (stereo not given), which Potency is on record?
Its Potency is active: 39.8 µM and inconclusive: 31.6 µM [inhibitor, partial curve, poor fit].

For `O=C1CCN(Cc2ccc(F)cc2F)CCCC(c2nc(-c3cnccn3)no2)CCN1` (stereo not given), which Potency is on record?
The Potency was inconclusive: 44.7 µM [inhibitor, partial curve, poor fit].

Which Potency does the source give for `O=[S+]([O-])(NC1CCN(c2ccnc3ccnn23)CC1)c1ccccc1` here?
Its Potency is inconclusive: 44.7 µM [inhibitor, partial curve, poor fit].

With `Cn1ncc2c(C(=O)NCc3ccccc3F)cc(-c3ccccc3C(F)(F)F)nc21` as the compound, how does the Potency read?
The Potency was inconclusive: 31.6 µM [inhibitor, partial curve, poor fit].

Which Potency does the source give for `COCCCNC(=O)C1CCCN1Cc1ccc(-c2cncnc2)cc1` (stereo not given) here?
Its Potency is “inactive”.

With `CC(=O)Nc1cccc(-c2nc(-c3c(C)noc3C)cc3cc(CO)oc23)c1` as the compound, how does the Potency read?
Its Potency is inconclusive: 56.2 µM [inhibitor, partial curve, poor fit].

Which Potency does the source give for `O=C(NCCCc1ccccc1)c1n[nH]c2c1CN(C(=O)C1CC1)CC2` here?
Its Potency is inconclusive: 11.2 µM [inhibitor, full curve, poor fit].

Which Potency does the source give for `CN1C(=O)c2cccn2CC1C(=O)NC1CC1` (stereo not given) here?
The Potency was “inactive”.

Which Potency does the source give for `Cn1ccc(C(=O)N2CC3ON=C(C(=O)N4CCN(c5ncccn5)CC4)C3C2)n1` (stereo not given) here?
Its Potency is “inactive”.

For `Cc1nc2c(c(-c3ccc(Cl)cc3)n1)CN(C(=O)c1ccc3c(c1)OCO3)CC2`, which Potency is on record?
The Potency was inconclusive: 44.7 µM [inhibitor, partial curve, poor fit].

Which Potency does the source give for `CNC(=O)c1cc(C)nc2onc(C3CCCN(C(=O)C4CC4)C3)c12` (stereo not given) here?
Its Potency is “inactive”.

Which Potency does the source give for `C[C@@H]1C(=O)O[C@H]2[C@H]1CC[C@@]1(C)Cc3sc(NCc4ccccc4)nc3[C@@H](C)[C@H]21` here?
Its Potency is inconclusive: 22.4 µM [inhibitor, full curve, poor fit].

Which Potency does the source give for `O=C1CC2(CCN(Cc3cccnc3)CC2)Oc2cc(Cl)ccc21` here?
Its Potency is inconclusive: 44.7 µM [inhibitor, partial curve, poor fit].

With `CC(C)C(=O)N1Cc2ccccc2CC2(CCCN(CC3CCNC3)C2)C1` (stereo not given) as the compound, how does the Potency read?
The Potency was “inactive”.

Which Potency does the source give for `COc1ccc(-c2noc([C@@H]3Cc4nc[nH]c4CN3Cc3ccccc3)n2)cc1` here?
Its Potency is inconclusive: 100 µM [inhibitor, partial curve].

Which Potency does the source give for `CC(C)CNc1ccc2nnc(-c3ccccn3)n2n1` here?
The Potency was inconclusive: 112 µM [inhibitor, partial curve, poor fit].

Which Potency does the source give for `CC#CCn1cc2c3c(cccc31)[C@H](CC(C)C)N[C@H](C(=O)NCCN(C)C)C2` here?
Its Potency is active: 39.8 µM.

With `c1cc2nnc(C3CC3)n2nc1N1CCCC1` as the compound, how does the Potency read?
The Potency was inconclusive: 70.8 µM [inhibitor, single point].

With `CN(c1ccccc1)c1ccc2c(n1)CN(CCOc1ccccc1)C(=O)CO2` as the compound, how does the Potency read?
Its Potency is inconclusive: 100 µM [inhibitor, partial curve, poor fit].

For `CCc1cccc(NC(=O)C2CCCN(c3cnn(Cc4ccccc4)c(=O)c3)C2)c1` (stereo not given), which Potency is on record?
Its Potency is inconclusive: 35.5 µM [inhibitor, partial curve].

Which Potency does the source give for `COc1ccccc1N1CCCc2ncc(C(=O)NCCOc3ccccc3)cc21` here?
The Potency was active: 89.1 µM.

Which Potency does the source give for `O=C(Nc1ccc(F)c(F)c1)C1CCN(C(=O)c2ncn3c2COC(c2ccc(F)cc2)C3)CC1` (stereo not given) here?
The Potency was “inactive”.

With `O=C(NCc1ccccn1)C1CCN(C(=O)c2ccc(-c3cccs3)cc2)CC1` as the compound, how does the Potency read?
Its Potency is inconclusive: 44.7 µM [inhibitor, partial curve, poor fit].

For `CCCCCNC(=O)C1CCCN(Cc2cccc(-c3ccsc3)c2)C1` (stereo not given), which Potency is on record?
Its Potency is active: 35.5 µM.

Which Potency does the source give for `O=C(NCc1ccc2c(c1)OCO2)C1CCCN1Cc1ccc(-c2cncnc2)cc1` (stereo not given) here?
Its Potency is inconclusive: 56.2 µM [inhibitor, partial curve, poor fit].

For `O=C(c1cccs1)N1CCCC(n2cc(-c3nc(-c4ccccc4)no3)nn2)C1` (stereo not given), which Potency is on record?
The Potency was inconclusive: 44.7 µM [inhibitor, partial curve, poor fit].

For `CCc1noc(-c2cn(C3CCN(C(=O)c4cc(Cl)ccc4OC)CC3)nn2)n1`, which Potency is on record?
The Potency was inconclusive: 39.8 µM [inhibitor, partial curve].

Which Potency does the source give for `O=C(C1CCCN1C(=O)C1CC1)N1CCC(N2Cc3ccccc3C2=O)CC1` (stereo not given) here?
Its Potency is “inactive”.

For `Nc1cccc(-c2ccc(N3CCOCC3)nn2)c1`, which Potency is on record?
The Potency was inconclusive: 39.8 µM [inhibitor, partial curve].

For `O=C(C[C@@H]1CCNC[C@@H]1Cc1cc(CC2CCCCC2)on1)NCc1ccccc1`, which Potency is on record?
Its Potency is active: 31.6 µM.

For `O[C@@H]1C[C@@H](c2nc(C3CC3)no2)N(Cc2ccc(OC(F)(F)F)cc2)C1`, which Potency is on record?
Its Potency is inconclusive: 100 µM [inhibitor, partial curve, poor fit].

For `Cc1cccc(CN2CCCC(O)(CNCc3cccc(F)c3)C2=O)c1` (stereo not given), which Potency is on record?
Its Potency is inconclusive: 79.4 µM [inhibitor, partial curve, poor fit].

For `Cc1ccc(CNC(=O)Cn2c(N(C)Cc3ccccc3)nc(C)cc2=O)cc1`, which Potency is on record?
The Potency was inconclusive: 70.8 µM [inhibitor, single point].

With `COc1ccc(Nc2ccnc(N3CCC(NC(=O)c4ccccc4C)CC3)n2)cc1` as the compound, how does the Potency read?
The Potency was active: 39.8 µM.

Which Potency does the source give for `Cc1cc2cc(C(=O)N(C)Cc3ccc4nsnc4c3)ccc2o1` here?
The Potency was “inactive”.

For `CN1CCCCCC(O)c2cc(C(=O)NCc3ccc(F)cc3)ccc21` (stereo not given), which Potency is on record?
Its Potency is inconclusive: 50.1 µM [inhibitor, partial curve, poor fit].

With `Cc1ccc(NC(=O)CCC2CCN(C(=O)c3ccccc3F)CC2)cc1` as the compound, how does the Potency read?
Its Potency is inconclusive: 44.7 µM [inhibitor, partial curve, poor fit].
